According to PubChem BioAssay AID1671193 (National Center for Advancing Translational Sciences (NCATS), 2021):
Out of some 150,000 compounds screened, about 180 (0.12%) were called active. Inconclusive means that the source gave no clear call. Such entries were picked first, then a sample of the others. Calls follow the shape of the dose curve; as a rule, active = well fitted cell-killing curve with a large enough effect; inconclusive = small, poorly fitted or top-dose-only effect, or effect the other way; inactive = flat fitted curve, though single readings scatter. A potency beside an inconclusive call is a rough fit, not a confirmed value.
Potency is read from the fitted curve at half-maximal effect; tags tell the direction and shape of the fitted curve.

Assay: GF-AFC viability counterscreen for inhibitors of alpha-synuclein gene (SNCA) expression; also: nearly all actives have a fitted effect of over 30% in size;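 as to activity change, negative = cytotoxicity: 0% = DMSO-treated cells and -100% = medium-only wells without cells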
Settings: HEK-293-SNCA-luc viability, GF-AFC fluorescence, 24 h; activity change, negative = cytotoxicity: at 57.1 µM (top of the series) unless noted
Method in brief: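 Cytotoxicity counterscreen: after 24 h compound treatment of genome-edited SNCA-luciferase HEK-293 cells, live-cell protease substrate GF-AFC read by fluorescence after 30 min; activity scaled between DMSO (0%) and medium-only (-100%), curves Hill-fitted.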
In the case of `COc1ccc(CN2Cc3[nH]cnc3C[C@H]2C(=O)N(C)Cc2ccccc2)c2ccccc12`, the Potency is reported as inconclusive: 28.2 µM [cytotoxic, single point].
With `CC1(C(=O)Nc2ccc(F)nc2)CCCN1c1nc(Nc2cc(C3CC3)[nH]n2)c2cccn2n1` (stereo not drawn) the Potency was inconclusive: 1.89 µM [cytotoxic, full curve, poor fit].
In the case of `CC1(COc2cccnc2)COc2ccc(C(=O)NCCc3ccccc3)cc2N1` (stereo not drawn), the “activity change, negative = cytotoxicity” value is reported as inactive: -21.8% [at 87.6 µM].
In the case of `O=C(NCCCc1ccccc1)c1ccc2nc(-c3cccnc3Cl)oc2c1`, the “activity change, negative = cytotoxicity” value is reported as inactive: -3.54% [at 87.6 µM].
With `COc1ccc(OC)c([S+](=O)([O-])c2nnn3c2nc(N2CCC(F)CC2)c2ccccc23)c1` the “activity change, negative = cytotoxicity” value was inactive: 9.48%.
In the case of `CCCCOc1ccc(C(=O)Nc2cccc(-c3nc4ccccc4o3)c2C)cc1`, the Potency is reported as inconclusive: 0.501 µM [cytotoxic, full curve, poor fit].
For `COc1ccccc1Nc1c2c(nc3ccc(NC(=O)c4ccc(N(C)C)cc4)cc13)CCCC2`, the Potency was inconclusive: 25.1 µM [cytotoxic, single point].
With `COc1cc(Nc2nc(-c3ccc(OC)c(OC)c3)nc3ccccc23)cc(OC)c1` the Potency was inconclusive: 25.1 µM [cytotoxic, single point].
With `COc1ccccc1CN1CCC[C@H]1c1nc(-c2ccc(F)cn2)no1` the “activity change, negative = cytotoxicity” value was inactive: -23.4% [at 87.6 µM].
With `COCCN1CCOc2nc(-c3cc(F)cc(OC)c3)ncc2C1=O` the “activity change, negative = cytotoxicity” value was inactive: 1.96% [at 87.6 µM].
With `O=C(NCc1cccc(C(F)(F)F)c1)C1CCN(Cc2ccccc2-c2cccnc2)CC1` the Potency was inconclusive: 8.91 µM [cytotoxic, full curve].
For `CCC(C)(C)NC(=O)c1cccc2c1CCN2C(=O)Nc1cccc(C)c1`, the Potency was inconclusive: 11.2 µM [cytotoxic, partial curve].
In the case of `Cc1ccc(CNC(=O)c2c(Nc3ccccc3C)sc(C(=O)c3ccc(F)cc3)c2N)cc1`, the Potency is reported as inconclusive: 31.6 µM [cytotoxic, single point].
For `CS(=O)(=O)N1CCC(NC(=O)c2[nH]ncc2NC(=O)c2c(Cl)cccc2Cl)CC1`, the Potency was inconclusive: 2.38 µM [cytotoxic, full curve].
For `COc1ccc(NC(=O)CN2C(=O)COc3ccc(C(=O)COc4ccccc4F)cc32)cc1`, the Potency was inconclusive: 14.1 µM [cytotoxic, partial curve, poor fit].
For `COc1ccc(C(=O)N[C@@H]2CCC[C@@H]2C(=O)NCCc2ccccn2)cn1`, the Potency was inconclusive: 31.6 µM [cytotoxic, single point].
In the case of `COc1cccc(-n2c(=O)c3c(C)c(C)sc3n(Cc3ccccc3C#N)c2=O)c1`, the Potency is reported as inconclusive: 1 µM [cytotoxic, full curve].
For `CC[n+]1c(/C=C/C=C2/N(C)c3ccccc3C2(C)C)sc2ccccc21`, the Potency was active: 10 µM.
For `CCn1ncc(N2CCC(NC(=O)CC3CCCCC3)CC2)cc1=O`, the Potency was inconclusive: 22.4 µM [cytotoxic, single point].
With `COc1ccc(-c2cc(N3CCCC(NC(=O)c4sccc4C)C3)n[nH]2)cc1` (stereo not drawn) the Potency was inconclusive: 14.1 µM [cytotoxic, partial curve, poor fit].
With `CC1=C[C@@H](CNS(=O)(=O)c2ccccc2)[C@H](C(C)C)C[C@H]1Cc1nc2ccncc2[nH]1` the Potency was inconclusive: 35.5 µM [cytotoxic, single point].
With `CCC1CN(C(=O)N2CCC(C(=O)NCc3cccc(F)c3)CC2)c2cc(C)ccc2O1` (stereo not drawn) the Potency was inconclusive: 39.8 µM [cytotoxic, single point].
In the case of `Clc1ccc(C2Cn3nnc(-c4noc(CCc5ccccc5)n4)c3CO2)cc1` (stereo not drawn), the Potency is reported as inconclusive: 31.6 µM [cytotoxic, partial curve, poor fit].
For `O=C(CSc1cn(CC(=O)N2CCCCC2)c2ccccc12)NCc1ccccc1Cl`, the Potency was inconclusive: 11.2 µM [cytotoxic, partial curve].
With `O=C(NCc1ccccc1)c1ccc2nnc(-c3cccnc3)n2c1` the “activity change, negative = cytotoxicity” value was inactive: -29.4%.
For `CC1=C[C@@H](CNCc2ccccc2)[C@H](C(C)C)C[C@H]1Cc1nc2c(C)cccc2[nH]1`, the Potency was active: 35.5 µM.
For `C=C1C(=O)OC2C(OC(=O)C=C(C)C)C(C)=C3C(=O)C=C(C)C3C(O)C12` (stereo not drawn), the Potency was inconclusive: 23.3 µM [cytotoxic, single point].
For `Cc1ccc(C(=O)NC2CCN(c3cc(-c4cccs4)[nH]n3)C2)cc1F` (stereo not drawn), the Potency was inconclusive: 20 µM [cytotoxic, partial curve, poor fit].
In the case of `N#Cc1ccc(CN2CCCCCCNC(=O)[C@@H]3CCC[C@@H]32)cc1`, the “activity change, negative = cytotoxicity” value is reported as inactive: -21.1%.
In the case of `Cc1cc(C)nc(-n2nc(C)c3c2NC(=O)CC3c2ccccc2OC(C)C)n1` (stereo not drawn), the Potency is reported as inconclusive: 12.6 µM [cytotoxic, partial curve, poor fit].
With `CCOC(=O)c1ccc(N2C(=O)c3[nH]nc(-c4ccccc4)c3C2c2cccs2)cc1` (stereo not drawn) the Potency was inconclusive: 35.5 µM [cytotoxic, single point].
With `O=C(CN1C(=O)COc2ccc(S(=O)(=O)Nc3ccccc3)cc21)NCc1ccccc1Cl` the Potency was inconclusive: 25.1 µM [cytotoxic, partial curve, poor fit].
For `Cc1ccc(-c2ccc(=O)n(CC(=O)NC(C)c3ccccc3)n2)cc1` (stereo not drawn), the Potency was inconclusive: 35.5 µM [rising, partial curve, poor fit].
With `O=C(c1ccccc1Cl)N1CCC2(CC1)C(=O)NCN2Cc1ccc(Cl)cc1` the “activity change, negative = cytotoxicity” value was inactive: 9.77%.
For `CC(C)S(=O)(=O)N1CCC2(CC1)CC(N(C)Cc1ccccc1)CCO2` (stereo not drawn), the “activity change, negative = cytotoxicity” value was inactive: -11.1%.
For `O=C1CN(C(=O)c2csc3nc(-c4ccc(C(F)(F)F)cc4)cn23)CCCN1`, the “activity change, negative = cytotoxicity” value was inactive: -5.81%.
For `Cc1cc(Nc2cc(NC(=O)c3c(Cl)cccc3Cl)ccn2)nc(N)n1`, the Potency was inconclusive: 21.5 µM [cytotoxic, partial curve, poor fit].
For `O=C(c1ccc(Oc2ccccc2)cc1)N1CCOCC12CCN(Cc1ccccc1)CC2`, the “activity change, negative = cytotoxicity” value was inactive: -15.1%.
With `O=[S+]1([O-])NCC2(CCCN(Cc3ccc(Cl)cc3)C2)Oc2ncccc21` (stereo not drawn) the “activity change, negative = cytotoxicity” value was inactive: -2.6%.
With `CC(C)CC(=O)N[C@H](C)c1c(-c2ccc(F)cc2)noc1C(=O)O` the “activity change, negative = cytotoxicity” value was inactive: 5.4% [at 87.6 µM].
In the case of `Cc1cc(OCCn2c(C3CC(=O)N(Cc4ccc(F)cc4)C3)nc3ccccc32)ccc1Cl` (stereo not drawn), the Potency is reported as inconclusive: 39.8 µM [cytotoxic, single point].
In the case of `O=C(N[C@H]1CO[C@H]2[C@@H]1OC[C@@H]2n1nnnc1-c1ccc2c(c1)OCO2)c1ccccc1`, the “activity change, negative = cytotoxicity” value is reported as inactive: -19.9% [at 87.6 µM].
For `COc1cccc(C(=O)N2CCN(C(=O)c3cccc(-c4ccccn4)c3)CC2)c1`, the Potency was inconclusive: 8.91 µM [cytotoxic, single point].
With `C[C@H]1CN(C(=O)C2CCCC2)C[C@@H]1c1nc(-c2ccccc2)no1` the “activity change, negative = cytotoxicity” value was inactive: -5.64%.
In the case of `C#CCOc1ccc(C2C(C(=O)OC)=C(C)NC3=C2C(=O)c2ccccc23)cc1OCC` (stereo not drawn), the Potency is reported as inconclusive: 1.78 µM [cytotoxic, partial curve, poor fit].
With `CCc1ccc(NC(=O)C(Cc2ccccc2)NS(=O)(=O)c2ccc3c(c2)CCN3C(C)=O)cc1` (stereo not drawn) the Potency was inconclusive: 28.2 µM [cytotoxic, single point].
For `COc1ccc(-c2cc(N3CCC(NC(=O)COc4ccccc4C)CC3)n[nH]2)cc1`, the Potency was inconclusive: 17.8 µM [cytotoxic, partial curve].
With `Cc1ccc(-c2nc3scc(CCNS(=O)(=O)c4ccc(C)c(C)c4)n3n2)cc1` the Potency was inconclusive: 2 µM [cytotoxic, full curve, poor fit].
In the case of `COc1cccc(CC(=O)Nc2ccc3c(c2)CN(Cc2cccc(OC)c2)C(=O)C(C)O3)c1` (stereo not drawn), the Potency is reported as inconclusive: 17.8 µM [cytotoxic, partial curve, poor fit].
With `COc1ncc2nc(-c3cn(C)c4ccccc34)c(=O)n(-c3ccccc3)c2n1` the Potency was inconclusive: 39.8 µM [rising, single point].
For `CN(C)C(=O)c1ccnc2[nH]ccc12`, the Potency was inconclusive: 12.6 µM [cytotoxic, single point].
For `C[C@]1(CO)C2CC[C@@H](O)[C@@H](CC(=O)NCc3cccs3)[C@]2(C)CC[C@H]1OC(=O)NC1CCCCC1` (stereo partly drawn), the “activity change, negative = cytotoxicity” value was inactive: -2.26%.
For `COc1ccc(C(=O)N[C@H]2C[C@@H](c3nc(-c4ccccc4)no3)N(C)C2)cc1`, the Potency was inconclusive: 6.31 µM [cytotoxic, full curve].
In the case of `CCN(CC)CCNC(=O)C1CCCN(c2nnc(C)c3c(C)n(-c4ccc(Cl)cc4)nc23)C1` (stereo not drawn), the Potency is reported as inconclusive: 28.2 µM [cytotoxic, single point].
For `COc1ccc(-c2noc([C@@H]3CCCN3C(=O)CCCc3ccccc3)n2)cc1OC`, the Potency was inconclusive: 17.8 µM [cytotoxic, partial curve, poor fit].
With `O=C1NC(=O)C(c2ccccc2[N+](=O)[O-])=C1Nc1ccc(O)c(Cl)c1` the Potency was inconclusive: 42.9 µM [cytotoxic, partial curve, poor fit].
In the case of `COc1ccc(CCc2nc3nccc(-c4cccc(OC)c4)n3n2)cc1`, the “activity change, negative = cytotoxicity” value is reported as inactive: 1.5%.
In the case of `COc1ccccc1Cn1c(=O)c(C(=O)NCc2cccs2)nc2cccnc21`, the “activity change, negative = cytotoxicity” value is reported as inactive: -15%.
In the case of `COCCNc1ncccc1-c1noc([C@@H]2CCCN2Cc2ccncc2)n1`, the “activity change, negative = cytotoxicity” value is reported as inactive: -15.1% [at 87.6 µM].
With `O=C(NCc1ccc(Cl)cc1)c1nc2sccn2c1-c1cccnc1` the Potency was inconclusive: 8.91 µM [cytotoxic, single point].
For `CCCCN1C(=O)C(O)(c2c(C)[nH]c3ccccc23)c2cc(Br)ccc21` (stereo not drawn), the Potency was inconclusive: 39.8 µM [cytotoxic, single point].
In the case of `N=C1SC(=Cc2ccc(-c3ccc4c(c3)C(=O)NC4=O)o2)C(=O)N1c1ccc(Br)cc1`, the Potency is reported as inconclusive: 0.003 µM [rising, full curve, poor fit].
For `CCCn1cnc2c1CN(S(=O)(=O)c1cccc(C(F)(F)F)c1)[C@H](C(=O)OC)C2`, the “activity change, negative = cytotoxicity” value was inactive: -1.07% [at 87.6 µM].
